For eight substances, binding results are on record in paper PMC9398005.

Protein sequences, listed by entry. Tags and fused reporters are not part of them. Lines headed by an entry give the natural chain unless they say otherwise; changes in a name come on top.
UniProt Q62504: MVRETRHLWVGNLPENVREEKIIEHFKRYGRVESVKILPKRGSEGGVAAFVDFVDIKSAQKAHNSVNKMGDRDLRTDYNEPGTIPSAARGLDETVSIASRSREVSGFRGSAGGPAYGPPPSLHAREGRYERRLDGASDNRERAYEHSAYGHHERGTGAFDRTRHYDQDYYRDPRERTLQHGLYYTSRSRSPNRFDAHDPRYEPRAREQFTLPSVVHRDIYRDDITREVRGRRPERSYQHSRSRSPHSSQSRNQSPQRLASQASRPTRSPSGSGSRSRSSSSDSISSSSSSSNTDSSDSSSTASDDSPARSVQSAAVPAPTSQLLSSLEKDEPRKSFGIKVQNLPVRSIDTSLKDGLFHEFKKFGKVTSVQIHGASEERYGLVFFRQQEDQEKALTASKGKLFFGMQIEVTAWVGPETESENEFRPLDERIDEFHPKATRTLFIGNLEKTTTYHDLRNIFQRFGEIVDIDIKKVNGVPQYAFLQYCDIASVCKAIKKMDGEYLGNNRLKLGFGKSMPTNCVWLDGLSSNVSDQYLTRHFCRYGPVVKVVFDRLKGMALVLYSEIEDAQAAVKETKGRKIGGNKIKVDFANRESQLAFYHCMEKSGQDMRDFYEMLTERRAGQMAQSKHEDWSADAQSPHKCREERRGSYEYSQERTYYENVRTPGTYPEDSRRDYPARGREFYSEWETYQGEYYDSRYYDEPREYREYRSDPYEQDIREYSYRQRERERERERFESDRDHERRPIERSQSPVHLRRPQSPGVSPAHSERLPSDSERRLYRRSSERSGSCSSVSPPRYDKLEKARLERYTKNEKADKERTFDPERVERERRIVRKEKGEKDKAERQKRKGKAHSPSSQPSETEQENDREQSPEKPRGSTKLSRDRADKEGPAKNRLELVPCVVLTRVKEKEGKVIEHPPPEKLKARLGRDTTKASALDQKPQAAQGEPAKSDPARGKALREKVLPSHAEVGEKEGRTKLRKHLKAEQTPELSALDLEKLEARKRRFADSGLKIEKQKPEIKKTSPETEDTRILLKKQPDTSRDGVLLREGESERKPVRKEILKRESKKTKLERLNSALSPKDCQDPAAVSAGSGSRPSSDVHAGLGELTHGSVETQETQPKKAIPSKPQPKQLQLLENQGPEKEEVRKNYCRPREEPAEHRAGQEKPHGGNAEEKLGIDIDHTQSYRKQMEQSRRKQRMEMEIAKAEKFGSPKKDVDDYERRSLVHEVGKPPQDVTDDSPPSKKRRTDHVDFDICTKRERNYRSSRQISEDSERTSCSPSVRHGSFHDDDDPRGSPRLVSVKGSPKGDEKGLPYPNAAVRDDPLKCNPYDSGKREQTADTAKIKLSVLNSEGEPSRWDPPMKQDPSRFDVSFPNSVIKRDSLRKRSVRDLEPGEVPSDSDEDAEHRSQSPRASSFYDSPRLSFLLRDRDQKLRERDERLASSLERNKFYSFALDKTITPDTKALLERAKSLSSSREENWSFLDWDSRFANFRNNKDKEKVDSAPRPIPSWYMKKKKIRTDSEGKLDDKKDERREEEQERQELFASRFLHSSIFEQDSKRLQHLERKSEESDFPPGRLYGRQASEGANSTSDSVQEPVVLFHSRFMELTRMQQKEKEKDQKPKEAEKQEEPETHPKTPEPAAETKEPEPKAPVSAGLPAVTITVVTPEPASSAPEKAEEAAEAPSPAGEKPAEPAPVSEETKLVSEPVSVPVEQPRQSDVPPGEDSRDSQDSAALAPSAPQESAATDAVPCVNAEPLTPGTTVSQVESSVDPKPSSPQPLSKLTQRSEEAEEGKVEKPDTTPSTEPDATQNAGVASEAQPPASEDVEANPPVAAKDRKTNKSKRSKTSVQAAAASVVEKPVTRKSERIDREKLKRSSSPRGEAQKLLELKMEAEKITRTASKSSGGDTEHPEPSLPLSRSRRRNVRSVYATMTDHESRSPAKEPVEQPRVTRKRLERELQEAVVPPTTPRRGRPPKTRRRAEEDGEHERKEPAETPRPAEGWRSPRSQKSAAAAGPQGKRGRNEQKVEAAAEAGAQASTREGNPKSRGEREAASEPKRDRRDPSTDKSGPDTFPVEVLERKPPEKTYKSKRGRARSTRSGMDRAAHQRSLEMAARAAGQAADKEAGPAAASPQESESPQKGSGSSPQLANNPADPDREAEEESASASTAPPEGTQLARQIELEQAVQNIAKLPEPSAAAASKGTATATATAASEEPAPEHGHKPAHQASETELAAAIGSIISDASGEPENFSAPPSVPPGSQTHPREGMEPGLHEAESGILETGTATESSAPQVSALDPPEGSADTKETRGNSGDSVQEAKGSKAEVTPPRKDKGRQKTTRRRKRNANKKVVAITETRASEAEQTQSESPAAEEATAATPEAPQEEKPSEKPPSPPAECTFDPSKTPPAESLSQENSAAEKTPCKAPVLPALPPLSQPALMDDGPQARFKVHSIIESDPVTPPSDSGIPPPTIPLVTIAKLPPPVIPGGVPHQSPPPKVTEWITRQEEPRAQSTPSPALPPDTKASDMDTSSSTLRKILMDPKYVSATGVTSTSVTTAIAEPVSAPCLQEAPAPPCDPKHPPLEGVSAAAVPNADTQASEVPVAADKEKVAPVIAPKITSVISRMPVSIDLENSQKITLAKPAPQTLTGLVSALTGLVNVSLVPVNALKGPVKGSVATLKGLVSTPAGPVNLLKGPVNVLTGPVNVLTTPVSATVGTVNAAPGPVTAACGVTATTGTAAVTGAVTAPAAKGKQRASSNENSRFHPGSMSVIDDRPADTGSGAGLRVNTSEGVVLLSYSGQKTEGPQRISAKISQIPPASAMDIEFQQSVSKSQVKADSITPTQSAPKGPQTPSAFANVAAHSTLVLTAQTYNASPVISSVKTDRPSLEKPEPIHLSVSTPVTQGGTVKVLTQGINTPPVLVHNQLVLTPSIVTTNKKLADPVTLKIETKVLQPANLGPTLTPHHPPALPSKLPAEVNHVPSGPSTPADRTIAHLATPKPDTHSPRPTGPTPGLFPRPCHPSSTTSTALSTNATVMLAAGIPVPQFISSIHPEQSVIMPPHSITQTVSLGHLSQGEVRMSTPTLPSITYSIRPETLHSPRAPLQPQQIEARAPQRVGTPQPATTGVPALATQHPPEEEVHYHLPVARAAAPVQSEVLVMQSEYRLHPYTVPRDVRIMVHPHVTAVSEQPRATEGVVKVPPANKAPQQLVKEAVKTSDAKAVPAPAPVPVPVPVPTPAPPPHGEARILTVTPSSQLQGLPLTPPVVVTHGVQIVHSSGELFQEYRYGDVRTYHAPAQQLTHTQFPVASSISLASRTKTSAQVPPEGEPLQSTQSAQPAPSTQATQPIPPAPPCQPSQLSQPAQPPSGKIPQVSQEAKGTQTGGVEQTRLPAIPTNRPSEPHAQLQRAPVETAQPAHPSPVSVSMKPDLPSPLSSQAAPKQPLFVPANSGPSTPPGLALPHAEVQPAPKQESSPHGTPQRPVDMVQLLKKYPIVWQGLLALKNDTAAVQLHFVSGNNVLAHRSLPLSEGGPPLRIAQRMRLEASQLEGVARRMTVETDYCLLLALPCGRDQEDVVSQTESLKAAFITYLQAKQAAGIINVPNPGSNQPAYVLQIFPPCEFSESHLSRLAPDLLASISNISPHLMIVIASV
UniProt P31266: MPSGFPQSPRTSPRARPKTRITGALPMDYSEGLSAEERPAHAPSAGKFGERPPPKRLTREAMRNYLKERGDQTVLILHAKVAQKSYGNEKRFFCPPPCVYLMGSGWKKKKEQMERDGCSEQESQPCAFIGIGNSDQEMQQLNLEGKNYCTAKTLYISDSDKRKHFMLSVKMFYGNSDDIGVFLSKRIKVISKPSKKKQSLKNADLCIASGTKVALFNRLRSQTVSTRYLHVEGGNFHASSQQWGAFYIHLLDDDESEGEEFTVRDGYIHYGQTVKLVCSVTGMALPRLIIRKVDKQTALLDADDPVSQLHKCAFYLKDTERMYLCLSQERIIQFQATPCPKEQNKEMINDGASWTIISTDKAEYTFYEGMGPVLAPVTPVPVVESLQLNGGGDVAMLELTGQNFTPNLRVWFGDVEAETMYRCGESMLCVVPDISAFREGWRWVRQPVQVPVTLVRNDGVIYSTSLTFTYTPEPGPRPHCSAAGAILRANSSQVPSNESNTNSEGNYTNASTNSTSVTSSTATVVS
UniProt Q92585: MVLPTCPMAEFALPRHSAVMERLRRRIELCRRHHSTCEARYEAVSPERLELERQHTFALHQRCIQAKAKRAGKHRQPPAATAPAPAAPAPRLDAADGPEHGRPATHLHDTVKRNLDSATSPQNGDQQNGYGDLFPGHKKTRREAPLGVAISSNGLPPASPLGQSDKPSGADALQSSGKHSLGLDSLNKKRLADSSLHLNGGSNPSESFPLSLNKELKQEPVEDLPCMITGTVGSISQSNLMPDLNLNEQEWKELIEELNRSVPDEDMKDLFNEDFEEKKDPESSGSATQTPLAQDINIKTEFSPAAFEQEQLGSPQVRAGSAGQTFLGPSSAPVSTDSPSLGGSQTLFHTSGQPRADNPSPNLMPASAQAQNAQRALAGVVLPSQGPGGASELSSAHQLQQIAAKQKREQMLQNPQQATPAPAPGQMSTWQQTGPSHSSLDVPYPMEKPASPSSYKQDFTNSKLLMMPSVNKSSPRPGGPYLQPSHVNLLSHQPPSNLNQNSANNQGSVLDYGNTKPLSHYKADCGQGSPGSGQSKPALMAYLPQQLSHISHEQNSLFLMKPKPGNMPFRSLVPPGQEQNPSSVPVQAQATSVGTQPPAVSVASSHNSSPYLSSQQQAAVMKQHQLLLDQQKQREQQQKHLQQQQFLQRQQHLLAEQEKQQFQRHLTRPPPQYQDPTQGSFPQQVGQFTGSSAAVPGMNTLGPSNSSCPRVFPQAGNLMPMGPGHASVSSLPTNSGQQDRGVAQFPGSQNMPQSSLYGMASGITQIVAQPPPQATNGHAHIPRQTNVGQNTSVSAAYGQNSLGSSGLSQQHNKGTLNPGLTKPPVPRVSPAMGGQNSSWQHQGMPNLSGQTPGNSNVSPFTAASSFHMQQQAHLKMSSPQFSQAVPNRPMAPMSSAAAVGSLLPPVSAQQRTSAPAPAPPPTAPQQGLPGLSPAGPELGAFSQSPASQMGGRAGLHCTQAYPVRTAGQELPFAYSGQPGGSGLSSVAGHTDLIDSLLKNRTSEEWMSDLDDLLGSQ

In experiment [1] the target is T1, Flag-SHARP-(RBPID) (pcDNA-3.1-Flag1-hsSHARP (2770-3127)) (human) (UniProt Q96T58).
T1 sequence: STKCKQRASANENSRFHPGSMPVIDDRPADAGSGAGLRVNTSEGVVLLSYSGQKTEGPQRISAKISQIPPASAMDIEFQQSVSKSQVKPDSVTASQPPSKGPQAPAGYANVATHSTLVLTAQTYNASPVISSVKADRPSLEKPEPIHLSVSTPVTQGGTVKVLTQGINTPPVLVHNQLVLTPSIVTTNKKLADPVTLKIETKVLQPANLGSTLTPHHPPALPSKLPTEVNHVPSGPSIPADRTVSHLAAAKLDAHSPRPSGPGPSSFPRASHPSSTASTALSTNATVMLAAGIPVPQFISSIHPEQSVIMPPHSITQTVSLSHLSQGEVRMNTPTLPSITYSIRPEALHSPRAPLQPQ
The experiment is described as follows: co-IP; HEK293 cells transfected with GFP-, Flag-tagged or untagged constructs; CHAPS lysate; anti-Flag (M2) agarose overnight at 4°C; Western blot with anti-GFP or anti-Maml1.

Experiment [2] has as its target Gal4-SHARP (pFA-CMV-MINT) (UniProt Q62504). The experiment is described as follows: two-hybrid; mammalian two-hybrid in HeLa cells: Gal4-SHARP (300 ng), Rbpj-VP16 (50 ng), pFR-Luc reporter (500 ng); luciferase.
The target of experiment [3] is Flag-Rbpj K195E (pcDNA3-Flag-Rbpj(K195E)) (mouse) (UniProt P31266). The experiment is described as follows: co-IP; HEK293 cells transfected with GFP-, Flag-tagged or untagged constructs; CHAPS lysate; anti-Flag (M2) agarose overnight at 4°C; Western blot with anti-GFP or anti-Maml1. A general note: A western blot detects proteins with antibodies after separation by electrophoresis.

In experiment [4] the target is Flag-Rbpj WT (pcDNA3-Flag-Rbpj(WT)) (mouse) (UniProt P31266). The description is as above.
In experiment [5] the target is Flag-Rbpj E89G (pcDNA3-Flag-Rbpj(E89G)) (mouse) (UniProt P31266). Described as above.

Results are given in words; binding and its absence hold for the method and conditions named. For some of these results: In cells and extracts the contact can be indirect. Some binding calls cover weakened binding; strength is not graded here. For some of these results: Where a sequence is shown, tags or fusion partners need not be part of it.

As for GFP-Rbpj WT (from UniProt P31266 1-526), the binding result in experiment [1] is reported as “binds”.

Turning to “GFP-Rbpj K195E (from UniProt P31266 1-526)”, the binding result in experiment [1] was “binds”.

Take “Rbpj-VP16 WT (pcDNA3-Rbpj-VP16(WT)) (from UniProt P31266 1-526)”: the binding entry in experiment [2] is given as “binds”.

Take “GFP-Rbpj E89G (from UniProt P31266 1-526)”: the binding result in experiment [1] was “binds”.

As to “Rbpj-VP16 K195E (pcDNA3-Rbpj-VP16(K195E)) (from UniProt P31266 1-526)”, in experiment [2], the binding result was “binds”.

Consider “Rbpj-VP16 F261A/L388A (from UniProt P31266 1-526)”, for which the binding result in experiment [2] is reported as “no binding”.

Maml1 (from UniProt Q92585 1-1016): the binding result in experiment [3], in experiment [4] and in experiment [5] was “binds” each time.

“Rbpj-VP16 E89G (pcDNA3-Rbpj-VP16(E89G)) (from UniProt P31266 1-526)”: the binding result in experiment [2] is “binds”.
